Assay results taken from the supplement of paper PMC3334620.
In all, about 33,000 sequences were measured (“E-score (-0.5 to 0.5)”: median about -0.01, highest 2% from about 0.26 on). The list shows a part of the results.

Molecular target: Ste12 (UniProt P13574)
Assay: PBM E-score (8-mer binding enrichment) (E-score (-0.5 to 0.5)); higher = stronger / more preferred TF binding; most listed sequences are background and not binding sites
Conditions: protein concentration: 200 nM; construct: GST-DNA-binding domain
Summary of the method: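 The E-score, a modified Wilcoxon-Mann-Whitney statistic, was computed by the Universal PBM Analysis Suite for every ungapped eight-base word pooled with its reverse complement. Scans behind it were normalised with masliner after bound GST-tagged yeast transcription factors were detected with fluorescent anti-GST. The proteins, at about 100-200 nM, had been applied to universal all-10-mer Agilent arrays made double-stranded by primer extension.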

Sequence	PBM E-score
GAAAGGTC	-0.0999
CGTGTTAG	-0.0923
ACCCTCTG	-0.0888
CTTTGCGA	0.169
AAGGCCTA	-0.215
ACTTGACG	-0.0478
GAGAGGCC	-0.191
AATTGTGT	0.0961
GGTTGATA	0.0744
AGGACGAG	-0.12
ACTCATAT	-0.0197
AAAGTGGA	-0.0616
CGCGCTTA	0.0716
CATTTACA	0.138
CTAGTTTA	0.0197
CCGACACC	-0.159
ATGAAATG	0.0682
GGCTGAAC	0.031
GCGTCTTA	-0.00211
GTACGTGA	0.0101
AGGAAGTG	0.0384
CTAAAGCC	-0.207
ATAAGTTG	0.114
ACGATGCC	-0.241
ATCAACAA	0.251

Sequence	PBM E-score
ATACGGTG	0.06
AACTACCT	0.157
GCGCAACA	-0.0976
CCGGTAAC	0.103
ACGACGTA	-0.22
ACTATACT	0.15
TTCCCCAA	0.112
CAAGTTAA	-0.00965
CAAAGGCA	-0.0872
TCGTCCAA	0.0146
ATGGGAAT	-0.202
GCATGCCA	-0.196
CAGCATCA	-0.203
GCCATTTA	-0.0394
TATTTTGA	0.185
AAACGACT	-0.0254
CTATCATA	0.114
CTGTTCAA	0.0529
CACGCTTC	-0.188
CCCATTTC	-0.108
GTGCGCTA	0.122
AAATAGCT	-0.0088
CTGCATAC	-0.189
ATACTTTA	0.225
ATCTCTAG	-0.0496

Sequence	PBM E-score
CCGTCCCC	-0.0491
CCAGGCCA	-0.168
AATGTTCG	-0.034
TAGACAAA	0.0937
AACAATGG	0.105
GCGAATAC	-0.0391
AACTCAAT	0.0764
AACTGGCA	-0.0435
CCGCATGC	0.00231
CCCAGCAG	0.0304
CGGTACCC	-0.115
CAGATAAA	0.146
GGGCGATA	-0.0958
TCAGACAA	0.161
AAACCCGG	0.188
GTGCCCCA	0.0341
AATTTCTA	0.122
GACCACCA	-0.0598
ATTGGATG	0.0752
AGGTCTTC	-0.246
GATCTTTA	0.0393
AATGGAGT	-0.144
ACCTAGCT	-0.206
ATGTCCTG	-0.00071
AAAATCAT	0.16

Sequence	PBM E-score
CGTGTACC	-0.213
CACATACG	-0.261
CAGTTGGC	-0.156
ACGCGATA	0.00646
GGCCATTA	-0.00171
AAGCAGCA	-0.28
ATTAGTCA	0.18
ATTCTGGA	0.00961
CGAGGAAC	0.0217
AGAAATGC	0.231
ACTATTAA	0.116
AATCGCAG	-0.0896
AATATCGG	0.101
GTTGCCAA	-0.0555
CGGTCTGA	0.0651
AGGCGCTA	-0.0601
CCGCCCAC	0.121
CACTCATG	0.0761
CTTGCACC	-0.0697
ACGCACAG	-0.0708
GACATTCC	-0.0914
CAAAACAA	0.0913
AAGGATGT	-0.0418
GGCGGGTA	-0.0476
AGTTCATC	-0.127

Sequence	PBM E-score
GTCTATGA	-0.00462
CCGGCAAG	-0.0708
AAATATTG	0.243
AATGATTA	0.19
AAGGATCC	-0.266
GGCGACAC	-0.077
CGTCTCGA	0.0467
CACCGTTA	-0.0893
AGGCTAAA	0.133
TATCCGAA	0.161
CCGGGTTC	-0.00368
GAGAGCCA	-0.186
GCCAGGTA	-0.127
CCAGGCTC	-0.124
AAGATCAC	-0.0426
CGAACAGA	0.214
ACCGACAT	0.0129
GTCGCGAA	-0.0274
ACCAAACC	0.203
GCGATGCA	-0.234
GAAGATCA	-0.044
AACGTTAC	0.0846
AACTATAC	0.111
GGGTGACC	-0.132
CCTGGGAG	-0.0726

Sequence	PBM E-score
AAGGGCTA	-0.165
CGAGGATC	-0.0171
CCTACTCG	-0.0396
CATAAACC	0.0477
AGGTATGG	0.0387
AAGATGCC	0.049
CTCCAAAG	-0.0333
AGGGGAAC	-0.118
ACTTTAGC	-0.139
GCTTTCCA	-0.0781
GGTTTTCA	0.311
ATGTCTAC	-0.183
AAAAAACT	0.0774
GATACATC	0.0608
ATGTTGGA	0.152
GCGTGCAC	-0.0491
ATAATGCC	0.0176
TACTCTGA	0.12
CATTTCCC	0.295
CGTCCTAA	-0.124
CGCGTTAC	0.104
GACCTAGA	-0.118
CATAACGG	-0.108
GTTAAAAC	0.174
TTCTAAAA	0.292

Sequence	PBM E-score
GGAATCAC	-0.0728
CCATCTAA	-0.0751
AGAGCACG	-0.0578
GCACGAAC	0.0154
AATCACGT	-0.0974
CGCTAGCA	-0.134
AACACTAA	0.0467
AACAACTG	0.0941
GGAAATGA	0.195
GATAAGGA	0.176
CAGATCGA	0.0171
ATGTCGGG	0.178
TGGCTGAA	0.0635
AGGCCGAG	0.0166
ATCTCTAC	0.0471
CACTGCCG	-0.0293
GACTTTAA	0.114
AGCCTGTG	-0.103
ACATCGGA	0.102
GTCATGCA	-0.106
CCCCCACG	-0.14
CAGTGCTA	-0.204
CTTCCTGC	-0.121
CTATAACC	-0.0374
CCATGCGG	-0.194

Sequence	PBM E-score
AGTTATTA	0.121
AAATTAAG	0.138
ACTGCGCC	-0.0582
ATGGAACC	0.00778
AAGTAGCA	0.0754
CCTGTCAG	-0.0127
ACGGGTCT	-0.211
AGGATTTC	-0.0183
GAAGGGCA	-0.0977
CAGTCACC	-0.126
AAAATACA	0.143
CGAATAGC	-0.159
GTCCGTTA	0.016
ACCTTGTG	-0.0411
ATAACAAA	0.252
ACAACTTA	0.053
AGACAGGG	-0.168
GTTCAACA	-0.0805
AAACACCA	0.122
ACGTAGAA	0.0901
TGAATCAA	0.227
ATCATCTC	0.0683
CTAGGTCA	-0.182
ATCGCTGG	-0.242
ACGGCCCA	-0.0919

Sequence	PBM E-score
CAGTCTAG	-0.167
AGTTTCCG	0.148
ATTGGGCA	-0.137
GGTTCCAC	-0.0251
CGCCCGGA	-0.12
CACTGCAA	-0.0732
CCATAAGG	-0.0978
AATCGGCG	-0.0488
TAAGGTCA	0.0255
ACGTCGCT	-0.241
GCGAAGGA	-0.064
AGGACTTG	-0.285
GCCCCAGC	-0.0932
AAGTTCCC	-0.152
GTATAGGA	-0.0378
CCCATCAA	0.241
TGCTGCCA	0.0489
CACCTTCC	0.0254
GAGAACAA	0.141
